PubChem BioAssay AID2094 (Broad Institute, 2009)
Hit rate of the full screen: of about 300,000 compounds, about 1,200 (0.4%) were called active. Inconclusive results, whose numbers are uncertain, are shown with a selection of clear calls. Rule as the data show it: active = activity change below about -75% (passing the limit was not always enough); inconclusive = no clear call, values can overlap the other calls.

Experiment: Vibrio harveyi AI-2 quorum sensing modulators, primary screen, JMH597 strain, luminescence/OD600 ratio (AID 2094);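 also: luminescence divided by OD600 gain over 9 h not by final OD600 alone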
Details: Vibrio harveyi JMH597 AI-2 luminescence/OD600 ratio, 9 h; at 7.5 µM; active compounds read low; 0 = neutral-control median; strain lacks LuxN and CqsS sensors
In the case of `Clc1ccc(CSc2nnc(CN3CCOCC3)n2-c2ccccc2)cc1Cl`, the activity change is reported as inconclusive: -86.1%. For `CC(/C=N/Nc1nc(N2CCCCC2)nc(N2CCCCC2)n1)=C\c1ccccc1`, the activity change was inconclusive: -730%. In the case of `Cc1cccc(OCC(=O)O/N=C(\N)c2ccc(Cl)cc2)c1`, the activity change is reported as inconclusive: -52.2%. With `COc1ccc(C2/C=C\CN(C(=O)Nc3ccc(C(F)(F)F)cc3)CC(=O)N2Cc2ccc(F)cc2)cc1` (stereo not drawn) the activity change was inconclusive: -104%. With `Cc1onc(-c2ccccc2Cl)c1C(=O)N1CCN(C(=O)c2ccco2)CC1` the activity change was inconclusive: -82.1%. In the case of `O=C(COC(=O)C1CCN(c2ccc(C(F)(F)F)cn2)CC1)c1ccccc1Cl`, the activity change is reported as inactive: 17.9%. With `CC(C)C(=O)Nc1ccc(-c2nc3ccccc3c(=O)o2)cc1` the activity change was inactive: 13.6%. With `O=C(NCCc1c[nH]c2ccccc12)c1ccccc1` the activity change was inconclusive: -75.9%. With `COc1ccc(N2CCN(C(=O)c3ccc4c(c3)NC(=O)C(CSCc3cccc(F)c3)N4)CC2)cc1` (stereo not drawn) the activity change was inactive: 20.4%. With `O=C(Nc1cccnc1)c1ccc(Oc2ccccc2)cc1` the activity change was inconclusive: -74.5%. In the case of `CCCCC(=O)NC(NC(=S)N1CCCCCC1)C(Cl)(Cl)Cl` (stereo not drawn), the activity change is reported as inactive: -5.99%. With `COc1ccc(N(C(=O)c2ccc(F)cc2)C2=CC3CCC(C2)N3C)cc1` (stereo not drawn) the activity change was inconclusive: -88.7%. For `CCc1ccc(S(=O)(=O)Nc2ccc(Br)cn2)cc1`, the activity change was inconclusive: -80.5%. With `Cc1cccn2cc(CSc3ccccc3N)nc12` the activity change was inactive: 13.2%. With `CC(=O)c1ccccc1OC(=O)c1ccc([N+](=O)[O-])o1` the activity change was inconclusive: -17.1%. For `COc1ccc(/C=C/C(=O)Oc2cc(O)cc(O)c2)cc1`, the activity change was active: -94.8%. With `COc1ccccc1/C=C\C=N\n1c(C2CCCCC2)n[nH]c1=S` the activity change was inconclusive: -80.6%. In the case of `CC(=O)NC(c1cccc([N+](=O)[O-])c1)c1ccc2cccnc2c1O` (stereo not drawn), the activity change is reported as inconclusive: -49.7%. With `CCCc1ccc(Oc2cn[nH]c2-c2ccc(O)c(C)c2O)cc1` the activity change was active: -93.7%. With `Cc1ccc(S(=O)(=O)c2ncccc2N)cc1` the activity change was inconclusive: -52.5%. In the case of `O=C(CCCOc1ccc(Cl)cc1Cl)NCCc1nnc2ccccn12`, the activity change is reported as inconclusive: -360%. For `CN(c1ccccc1)c1ccc(/C=C/[N+](=O)[O-])cc1`, the activity change was inconclusive: -47.4%. For `O=c1[nH]c(=O)c2ncc(-c3ccc(Cl)cc3)nc2[nH]1`, the activity change was inactive: -0.832%. For `O=C(c1ccc(CS(=O)Cc2ccc(Cl)cc2)o1)N1CCN(c2cccc(Cl)c2)CC1` (stereo not drawn), the activity change was inactive: 49.4%. In the case of `CCOc1ccccc1C1CC(=O)Nc2cc3c(cc21)OCCO3` (stereo not drawn), the activity change is reported as inactive: 11.2%. In the case of `O=Cc1coc2c(ccc3ccccc32)c1=O`, the activity change is reported as inconclusive: -66%. In the case of `CCCCCc1ccc(-c2ccc(=O)[nH]n2)cc1`, the activity change is reported as active: -77.3%. In the case of `CCN(c1cccc(C)c1)S(=O)(=O)c1ccc(-n2cccn2)cc1`, the activity change is reported as inactive: 13.4%. For `O=C(NCCOc1ccccc1)c1cccc(S(=O)(=O)NCc2ccccc2)c1`, the activity change was active: -97%. In the case of `CCCCOc1ccc(C(=O)NNC(=S)NC(=O)CC)cc1`, the activity change is reported as inconclusive: 505%. With `CC1(C)CC(=O)C2=C(C1)N(CCN1CCOCC1)C1=C(C(=O)CC(C)(C)C1)C2c1cccc(Cl)c1` the activity change was inactive: 12.8%. With `O=C(COC(=O)c1ccc([N+](=O)[O-])o1)Nc1nc2ccccc2s1` the activity change was inconclusive: -78.9%. With `Fc1ccc(CSc2nnc(-c3ccco3)o2)cc1` the activity change was inconclusive: -75.1%. With `Cc1nc(Oc2ccccc2)c2oc3ccccc3c2n1` the activity change was inconclusive: -75.2%. For `CCN1/C(=C/C=C/C=C/c2sc3ccccc3[n+]2CC)Sc2ccccc21`, the activity change was inconclusive: -42.1%. With `N/C(Cc1ccc(Cl)cc1)=N\OC(=O)C1CCCCC1` the activity change was inconclusive: -21%. In the case of `c1ccc(-c2c[n+]3c(n2-c2ccccc2)SCC3)cc1`, the activity change is reported as inconclusive: -116%. With `O=C(Cn1c(=O)oc2cc(S(=O)(=O)NCc3ccccc3)ccc21)NCc1ccco1` the activity change was inconclusive: -75.6%. For `Cc1cccc(OCC(=O)Nc2ccc3c(c2)C(=O)NC3=O)c1`, the activity change was inconclusive: -78.3%. With `O=C(/C=C/c1cccc(Cl)c1)c1ccc([N+](=O)[O-])o1` the activity change was inconclusive: -65.3%. In the case of `COC(=O)/C=C/C(=O)Nc1ccc(O)c(Cl)c1`, the activity change is reported as active: -93%. In the case of `O=C1C=CC(=O)N1c1ccc(O)cc1`, the activity change is reported as inconclusive: -57.4%. In the case of `O=C(NC(=S)N1CCCc2ccccc21)c1ccccc1`, the activity change is reported as inconclusive: -95.2%. With `O=S(=O)(/C=C/c1ccccc1)NC1CCCCCC1` the activity change was inactive: 22.4%. With `COc1ccccc1N1CCN(Cc2cc(=O)n3ccsc3n2)CC1` the activity change was inconclusive: -97.8%. In the case of `Cc1cc(OCC(=O)NNC(=O)c2cnccn2)cc(C)c1Cl`, the activity change is reported as inconclusive: -73.7%. With `O=C(Nc1cc(Cl)ccc1-n1cncn1)c1ccc([N+](=O)[O-])s1` the activity change was inconclusive: -78.9%. With `CCOc1cccc(/C=N/NC(=O)c2cccnc2)c1O` the activity change was inactive: -26%. For `O=C(N/N=C/c1cc(O)ccc1Br)c1cccnc1`, the activity change was inconclusive: -101%. With `O=C(COC(=O)c1cccc(C(F)(F)F)c1)NCc1ccc(Cl)cc1` the activity change was inactive: 15.4%. In the case of `COc1cc(NC(=O)N2c3ccccc3Sc3ccccc32)c(C(=O)O)cc1OC`, the activity change is reported as inactive: 29.5%. In the case of `Cc1onc(-c2ccccc2)c1C(=O)O/N=C(\N)c1ccc([N+](=O)[O-])o1`, the activity change is reported as inconclusive: -83.4%. In the case of `CCc1nc2nc(C)c(NS(=O)(=O)c3cccs3)c(=O)n2[nH]1`, the activity change is reported as inconclusive: -114%. In the case of `COc1cc(/C=N/n2c(-c3n[nH]c4c3CCC4)n[nH]c2=S)ccc1O`, the activity change is reported as inactive: 28.7%. In the case of `O=C(O)c1ccc(NC2=C(Cl)C(=O)c3ccccc3C2=O)cc1`, the activity change is reported as inconclusive: -78%. In the case of `O=C(Cn1nnc2ccccc2c1=O)Nc1ccc(S(=O)(=O)N2CCOCC2)cc1`, the activity change is reported as active: -96.8%. In the case of `O=C(N/N=C/c1cc(Cl)ccc1O)c1ccncc1`, the activity change is reported as inconclusive: -67.6%. With `Cc1ccc(CSc2nnc(-c3ccccn3)n2N)cc1` the activity change was inconclusive: -72.3%. With `COc1ccc(OCC(=O)N(Cc2ccco2)C2CCS(=O)(=O)C2)cc1` (stereo not drawn) the activity change was inconclusive: -95.3%. For `O=C(CN1C(=O)CCC1=O)Nc1ccc(Cc2ccc(NC(=O)CN3C(=O)CCC3=O)cc2)cc1`, the activity change was inactive: 24.8%. With `O=C(NCCN1CCOCC1)c1ccc(Cl)c([N+](=O)[O-])c1` the activity change was inconclusive: -42.5%. For `O=[N+]([O-])c1cc(Cl)c2cccnc2c1O`, the activity change was inconclusive: -82.3%. For `O=C1/C(=C/c2ccc3c(c2)OCO3)Oc2cc(OCC(=O)N3CCC[C@H]3C(=O)O)ccc21`, the activity change was inactive: 22.4%. In the case of `Cc1cc(C)nc(N/N=C/c2ccc([N+](=O)[O-])o2)n1`, the activity change is reported as active: -83.7%. In the case of `Oc1c(CN2CCN(c3ccc(F)cc3)CC2)cc(Cl)c2cccnc12`, the activity change is reported as inconclusive: -81.7%. With `CC1=C(Nc2ccc(C(=O)O)cc2)C(=O)c2ccccc2C1=O` the activity change was inconclusive: -53.5%. With `COc1ccc(Cc2nnc(CCc3ccccc3)s2)cc1` the activity change was inconclusive: -77.3%. In the case of `O=C(NNc1nc2cc3c(cc2s1)OCO3)c1ccc(F)cc1`, the activity change is reported as inconclusive: -67.9%. In the case of `CNc1nc(SCC(=O)Nc2ccc(Cl)c(Cl)c2)nc(N2CCOCC2)n1`, the activity change is reported as inconclusive: -33.7%. With `O=C(OCC(=O)N1CCCC1)c1ccc(NS(=O)(=O)c2cccs2)cc1O` the activity change was inconclusive: -78.7%. With `Clc1ccc(OCCn2cnc(Cl)c2Cl)cc1` the activity change was active: -83.9%. With `COC(=O)c1cnn(-c2cc(Oc3ccccc3)ncn2)c1N` the activity change was inconclusive: -73.7%. For `COc1ccccc1N1CCN(C(=O)c2cccc(N3C(=O)NC4CC3(C)Oc3c(OC)cccc34)c2)CC1` (stereo not drawn), the activity change was active: -82.8%. For `Cc1ccccc1NC(=O)C(=O)c1cn(C)c2ccccc12`, the activity change was inconclusive: -171%. With `CCOc1ccc2nc(NC(=O)CN3CCC(n4nnc5cc(C(F)(F)F)ccc54)CC3)sc2c1` the activity change was inconclusive: -56.7%. In the case of `CC(C)=CC(=O)OCC(=O)Nc1cccc([N+](=O)[O-])c1`, the activity change is reported as active: -89.4%. In the case of `Cc1c(C(=O)NCCCn2ccnc2)oc2ccccc12`, the activity change is reported as inactive: 12%. In the case of `NC(=O)c1c(N)sc(=S)n1CC1CCCO1` (stereo not drawn), the activity change is reported as inactive: 7.3%. In the case of `O=C(O)c1ccc(N/N=C/c2cccc3nccnc23)cc1`, the activity change is reported as inconclusive: -70.6%. With `Cc1cc(C(=O)COC(=O)c2nc3nccc(C)n3n2)c(C)n1CC1CCCO1` (stereo not drawn) the activity change was inactive: 23.7%. With `CCc1ccc(NC(=O)CCc2ccc(CC)o2)cc1` the activity change was inconclusive: -75.8%. In the case of `COc1cc(SC)ccc1C(=O)N1CCCc2ccccc21`, the activity change is reported as inactive: 3.3%. With `O=C1C=C(NCCN2CCOCC2)C(=O)c2cnccc21` the activity change was inconclusive: -69.2%. In the case of `C=CCOc1ccc(/C=C2\SC(=S)N(NS(=O)(=O)c3ccccc3)C2=O)cc1`, the activity change is reported as active: -86.2%. In the case of `Cc1ccc(C2(C)NC(=O)N(CC(=O)NNC(=O)c3cc(C)oc3C)C2=O)cc1` (stereo not drawn), the activity change is reported as active: -79.5%. With `O=C(NCc1cccs1)Nc1ccc(Cl)cc1` the activity change was inconclusive: -70.9%. In the case of `COc1cccc(NC(=O)Cc2ccc3ccccc3c2)c1`, the activity change is reported as active: -84.3%. With `O=C(NCc1ccco1)Nc1ccc2snnc2c1` the activity change was inconclusive: -69.1%. In the case of `COCCOC(=O)c1c(NC(=O)CNCc2ccco2)sc(C(N)=O)c1C`, the activity change is reported as inactive: 15.1%. In the case of `CCSc1nsc(NC(=O)Nc2cccc(F)c2)n1`, the activity change is reported as inconclusive: -13.2%. With `Cc1cccc(/C=N/n2c(C3CCCCC3)n[nH]c2=S)c1` the activity change was inconclusive: -52%. For `N/C(=N\OC(=O)COc1ccccc1)c1ccc(Cl)cc1`, the activity change was inconclusive: -73.1%. In the case of `COc1cccc(OCc2cc(C(=O)NCc3ccc4c(c3)OCO4)no2)c1`, the activity change is reported as inconclusive: -75.3%.
